In the RNAGym collection of RNA variant scans (doi:10.7554/elife.90254):
Read counts are not given, so values of variants with three or more changes are uncertain.

B1: LINE1-mini (parent)
chain: GGCAGAGCUCAACACAGCGUGGCAAAGUGGCUGUGGCUAGACUGCC

Variants of: B1
Assay: self-cleavage, relative activity (ratio to wild type); higher = more cleavage; in vitro, sequencing; the parent is a self-cleaving ribozyme

| Variant | self-cleavage |
| --- | --- |
| G2A A4C G35U | 1.09 |
| G1U C15G A25C G36U | 0 |
| G1U C15U C31A C37U | 0.06 |
| G1U C13U C15U G17U C31A | 0.01 |
| G1U U20G G21U C23U G33U U43A | 0 |
| G1U G5U G27U | 0.07 |
| G1U G5C G21C G22C G29C C46A | 0.02 |
| G1U C18A G22U C31A | 0.05 |
| G1U G5U C18G | 0.01 |
| G1U G40C C42U | 0.05 |
| G1U C18U C46A | 0.6 |
| G1U G2C A24G C31A C46A | 0.01 |
| G1U G2A U34A | 0.02 |
| G1U C15U C18U G29U A39G | 0.01 |
| G1U G2U G5C U9C G29C U34C A41C | 0.01 |
| G1U G2A G5U U20C G22U G33C | 0.06 |
| G1U G7A U9G | 0.03 |
| G1U U38G A39C C45A | 0.04 |
| G1U G5A A11U G27A C37U | 0 |
| G1U U9C G27U G29A C37G G44C | 0.01 |
| G1U G5A G35A | 0.17 |

| Variant | self-cleavage |
| --- | --- |
| G1U U20G G36U | 0.01 |
| G1U G40U C42A | 0.08 |
| G1U G2U A39U | 0.05 |
| G1U C42A C45A | 0.02 |
| G1U G21C G22A A41U | 0.19 |
| G1U U20G C23A | 0.18 |
| G1U G5A G29A | 0.41 |
| G1U G22U A26C G29U A39C | 0.02 |
| G1U U9G A11G C15A | 0.01 |
| G1U G2A C10A G40A | 0 |
| G1U U28G G36C | 0.04 |
| G1U U32G U34C G44A | 0.02 |
| G1U G2A A11C G19C C31A G33C | 0.01 |
| G1U G17A U20A G21A A24C | 0.49 |
| G1U C13U G29U | 0.17 |
| G1U G44U C45G | 0.06 |
| G1U G5U G40A | 0.01 |
| G1U C23A A25U | 0.15 |
| G1U G5U A6G C23G G35A G40A G44C | 0.01 |
| G1U G17A C18A G19A U28C G44C | 0.04 |
| G1U G2A U9C G29A A41G | 0.01 |

| Variant | self-cleavage |
| --- | --- |
| G1U G44A C46G | 0.08 |
| G1U G30C C45G | 0.03 |
| G2A A4C G44A | 0.13 |
| G1U G19U A25G G44U | 0.4 |
| G1U G33A A39U | 0.05 |
| G2A A4C U9C G29A | 0.02 |
| G1U U9C C10A C31G G40A | 0.01 |
| G1U C37U G44C | 0.06 |
| G1U C15G G17A G19A G22U U38A | 0.01 |
| G1U G22A G40C C46U | 0.05 |
| G1U G27A U32A | 0.05 |
| G2A A4C U38A G44U | 0.15 |
| G1U G5A A6G C8G G29U G44A | 0.02 |
| G1U G27C C31A | 0.11 |
| G1U G7C G29U | 0.08 |
| G1U G5C G21U G40C | 0.01 |
| G1U G5A A14G | 0.22 |
| G1U G27A C45A | 0.22 |
| G1U C31G C42U U43C | 0.04 |
| G1U G2U A4U G19A U20C G33U U38G C45G | 0.03 |
| G1U G19C U20G G21A G29U G36C C42A C46A | 0.01 |

| Variant | self-cleavage |
| --- | --- |
| G1U G30A C31A U43A | 0.03 |
| G1U G5C G29C C37A | 0.04 |
| G1U C13U U20G U38A | 0.04 |
| G1U C31A C42G G44C | 0.03 |
| G1U U20C A39C | 0.01 |
| G1U U20G C42U C46G | 0.14 |
| G1U G5A A41G | 0.03 |
| G1U C13U U32C A39G | 0.01 |
| G1U G19C G40C | 0.02 |
| G1U C15G G22A | 0.04 |
| G1U G22U G27A C31U G35A G36C C45A | 0.02 |
| G1U G2A G21U C23G C31U U38G C45A | 0.01 |
| G1U G2A G7A U20G | 0.27 |
| G1U C31A G44U | 0.06 |
| G1U G2C C8G C10G C18U G21C A41C G44U C46U | 0 |
| G1U U9C A14U G22A G40C | 0.02 |
| G1U G2U C3A | 0.74 |
| G1U G7C A14G U28A | 0.03 |
| G1U U20A G27C C37U | 0.01 |
| G1U G22U G33C G36A | 0.01 |
